In PubChem BioAssay AID1963576 (National Center for Advancing Translational Sciences (NCATS), 2024):
About 60 (0.1%) of roughly 46,000 compounds were called active. About 3% were inconclusive and are not listed. Calls follow the shape of the dose curve; as a rule, active = well fitted inhibition curve with a large enough effect; inconclusive = small, poorly fitted or top-dose-only effect; inactive = no such curve, though single readings can be large or run the other way. The list shows a part of the results.

assay: Primary qHTS assay for Inhibitors of ovarian cancer metastasis using an organotypic tumor microenvironment (TME) model.; also: nearly all actives have a fitted effect of over 65% in size;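 as to activity change, negative = inhibition: plate controls were DMSO wells for no effect and tomatine positive control wells for full effect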; conditions: SKOV3ip1-GFP adhesion/invasion on 3D omental model, fluorescence; series mostly up to 45.8 µM; activity change, negative = inhibition: at the top concentration
In short: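 qHTS, 4-pt dose (0.36-46 umol/L); SKOV3ip1-GFP, 1,200 cells/well, no FBS; primary omental fibroblast/mesothelial co-culture 48 h pre-grown; 2 h RT + 16 h 37 C; PBS wash, 4% PFA; GFP count 488/509 nm.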

Activity change, negative = inhibition, inactive:
CCOc1ccc(CNC(=O)C2CCN(C(=O)c3ccc(-n4ccc5ccccc54)s3)CC2)cc1 3.95%, O=C(Nc1ccc(Br)c(Cl)c1)c1ccc(C(=O)Nc2ccc(Br)c(Cl)c2)cc1 2.54%, CCOC(=O)c1cc2c(=O)n3ccccc3nc2n(C)c1=NC(=O)c1c(-c2c(F)cccc2Cl)noc1C 3.13%, Cc1ccc(C)c(N2CCN(S(=O)(=O)c3c(C(=O)N4CCC(C)CC4)c(C)n(C)c3C)CC2)c1 -18.4%, O=C(COc1ccccc1)NCC(c1ccc(Cl)cc1)N1CCCCC1 (stereo unspecified) 3.05%, CCc1ccc(NC(=O)CSc2nc3c(c(=O)[nH]2)CN(Cc2ccc4c(c2)OCO4)CC3)cc1 5.43%, COc1ccc(-c2nc(C(=O)Nc3cccc(C(C)=O)c3)nn2-c2ccccc2Cl)cc1 -17.4%, CCCCCn1c(CCCNC(=O)c2ccc(Cl)cc2)nc2ccccc21 2.44%, COC(=O)C1=C(C)N(C(C)C)C(=O)C1(NC(=O)c1ccccc1OC)C(F)(F)F (stereo unspecified) -7.1%, COc1ccccc1CNC(=O)C(=O)NCC(c1ccco1)S(=O)(=O)c1ccc(C)cc1 (stereo unspecified) -4.16%, CCOC(=O)[C@H](CCc1ccccc1)N[C@H]1CS[C@H](c2cccs2)CN(CC(=O)O)C1=O -28.1%, Cc1ccccc1CCNC(=O)c1ccc(Cn2c(=O)c3cccn3c3cccnc32)cc1 -7.46%, CCC(=O)N1CCc2cc(Br)cc(S(=O)(=O)Nc3ccccc3C(=O)OC)c21 5.85%, O=C(CSc1nccn1Cc1ccc(Cl)cc1)Nc1nc2ccccc2s1 -9.18%, COCCCNC(=O)c1cc2c(-c3cccc(OC)c3)nn(C)c2s1 -0.939%, CCOc1cc(-c2nc(-c3ccc(-c4ccccc4)nc3OCC)no2)cc(OCC)c1OCC 7.81%, COc1cc(OC)c(NC(=O)c2cnn(-c3ccccc3)c2-n2cccc2)cc1Cl -2.87%, CCCc1cc(=O)n2[nH]c(NCc3c(F)cccc3Cl)nc2n1 -8.64%, CCOc1ccc(OCC(=O)Nc2ccc(S(=O)(=O)Nc3cc(C)on3)cc2)cc1 7.48%, COc1cc(CN(C(=O)COc2ccc(F)cc2)c2ccccn2)cc(OC)c1OC 3.18%

outcome, inactive:
O=C(CCCc1ccccc1)NC1CC(=O)N(c2cccc(F)c2)C1 (stereo unspecified), COc1ccc(CNC(=O)CCc2nnc3n(C)c(=O)c4sccc4n23)cc1, CCc1ccc(NC(=O)c2cc(S(=O)(=O)N3CCCC(C)C3)cn2C)cc1 (stereo unspecified), COc1ccc(N2CCN(C(=O)c3cc4c(=O)n(Cc5ccco5)ccc4nc3C)CC2)cc1, O=C(NCc1ccccc1Cl)c1ccccc1NC(=O)c1nsc2ccccc12, CCc1nn(CC(=O)NCCc2ccc(SC)cc2)c(=O)c2cc3sccc3n12
